{"source": "PubChem BioAssay AID1460", "about": "(National Center for Advancing Translational Sciences (NCATS), 2008)", "note": "About 5,800 (2.1%) of roughly 270,000 compounds were called active. The inconclusive results got no clear call from the source; some entries with a clear call stand among them for comparison. The call rests on the fitted dose curve; in most records, active means well fitted inhibition curve with a large enough effect; inconclusive means small, poorly fitted or top-dose-only effect; inactive means flat fitted curve, though single readings scatter. Potencies beside an inconclusive call are fits to weak or partial responses and may not hold up. Potency means the concentration at half of the fitted maximal effect; tags describe the fitted curve by direction and shape.", "data": [{"molecular_target": "Microtubule-associated protein tau (Homo sapiens) (UniProt P10636)", "sequence (P10636 whole entry, looked up)": "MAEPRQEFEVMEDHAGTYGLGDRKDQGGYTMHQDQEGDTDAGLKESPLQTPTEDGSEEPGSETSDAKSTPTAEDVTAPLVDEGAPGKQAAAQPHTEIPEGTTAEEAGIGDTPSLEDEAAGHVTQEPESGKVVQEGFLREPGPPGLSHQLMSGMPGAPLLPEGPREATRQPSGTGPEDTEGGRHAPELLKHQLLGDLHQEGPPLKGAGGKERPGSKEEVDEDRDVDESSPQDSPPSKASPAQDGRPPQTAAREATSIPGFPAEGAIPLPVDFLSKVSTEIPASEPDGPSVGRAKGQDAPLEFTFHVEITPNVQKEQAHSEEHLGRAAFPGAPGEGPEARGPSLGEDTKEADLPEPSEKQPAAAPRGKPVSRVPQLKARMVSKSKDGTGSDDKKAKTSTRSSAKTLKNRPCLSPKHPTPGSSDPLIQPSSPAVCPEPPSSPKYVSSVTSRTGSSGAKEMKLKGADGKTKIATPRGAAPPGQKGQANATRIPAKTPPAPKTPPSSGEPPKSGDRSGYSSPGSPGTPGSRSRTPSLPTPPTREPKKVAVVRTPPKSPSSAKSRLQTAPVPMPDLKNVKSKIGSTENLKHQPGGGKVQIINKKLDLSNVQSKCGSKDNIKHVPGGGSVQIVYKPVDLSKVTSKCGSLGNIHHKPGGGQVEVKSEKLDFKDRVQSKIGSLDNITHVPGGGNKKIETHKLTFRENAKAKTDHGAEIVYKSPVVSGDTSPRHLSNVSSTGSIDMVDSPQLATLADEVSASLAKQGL", "test": "qHTS for Inhibitors of Tau Fibril Formation, Thioflavin T Binding; further: nearly all actives have a fitted effect of over 55% in size", "details": "recombinant tau K18 P301L, heparin-induced fibrillization, ThT fluorescence; series mostly up to 57.4 µM", "in_short": "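Fibril formation assay: tau K18 P301L at 15 uM with trace Alexa 594 label, heparin inducer 20 uM, pH 7 sodium acetate buffer, 37 C for 6 hr; endpoint ThT signal.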", "values": [{"compound": "CCc1ccc(C(=O)Nc2ccc(S(=O)(=O)Nc3nc(C)cc(C)n3)cc2)o1", "Potency": "inactive"}, {"compound": "CCn1c(COc2cc(C)cc(C)c2)nnc1SCC(=O)N1CCN(c2ccccc2)CC1", "Potency": "inconclusive: 2 µM [inhibitor, full curve]"}, {"compound": "COc1cc(C=C(c2nc3ccccc3s2)c2nc3ccccc3s2)ccc1O", "Potency": "inconclusive: 14.1 µM [inhibitor, partial curve]"}, {"compound": "O=C(C1CCC(Cn2c(=O)c3sccc3n(Cc3cccc(F)c3)c2=O)CC1)N1CCCCC1", "note": "(stereo unspecified)", "Potency": "inactive"}, {"compound": "CC(=O)c1cc2c(cc1NC(=O)CSc1nc3ccc(C)cc3[nH]1)OCO2", "Potency": "inconclusive: 14.1 µM [inhibitor, partial curve]"}, {"compound": "COC(=O)C1=C(C)N(Cc2ccco2)C(=O)/C1=C\\c1ccc([N+](=O)[O-])cc1", "Potency": "active: 12.6 µM"}, {"compound": "CCOc1ccc(NC(=O)Nc2ccc(NC(C)=O)cc2)cc1", "Potency": "inconclusive: 11.2 µM [inhibitor, partial curve, poor fit]"}, {"compound": "C=C(C)CSc1nc2sc3c(c2c(=O)n1-c1ccccc1)CCC(C)C3", "note": "(stereo unspecified)", "Potency": "inconclusive: 2.24 µM [inhibitor, full curve, poor fit]"}, {"compound": "CCN1CCN(c2ncnc3c2cnn3-c2ccc(C)cc2)CC1", "Potency": "inactive"}, {"compound": "COc1ccc(N2CCC(CNC(=S)Nc3cc(C)cc(C)c3)C2)cc1", "note": "(stereo unspecified)", "Potency": "inconclusive: 7.94 µM [inhibitor, full curve]"}, {"compound": "COc1c(O)c(O)cc2c1oc1c3ccccc3oc(=O)c21", "Potency": "active: 7.94 µM"}, {"compound": "COc1ccc(N2C(=O)/C(=C\\c3ccco3)N=C2SCC(N)=O)cc1Cl", "Potency": "inconclusive: 15.8 µM [inhibitor, partial curve]"}, {"compound": "O=Cc1cn(CC(O)CN2CCCCC2)c2ccccc12", "note": "(stereo unspecified)", "Potency": "inactive"}, {"compound": "Cc1ccc(S(=O)(=O)NN2C(=O)c3ccccc3NC2c2ccccn2)cc1", "note": "(stereo unspecified)", "Potency": "inconclusive: 3.16 µM [inhibitor, partial curve]"}, {"compound": "O=C(N/N=C/c1ccc(-c2ccccc2[N+](=O)[O-])o1)c1cncc(Br)c1", "Potency": "active: 7.94 µM"}, {"compound": "O=[N+]([O-])c1cc(C(F)(F)F)ccc1NCCNC(=S)Nc1ccc(Cl)cc1", "Potency": "active: 11.2 µM"}, {"compound": "CN(C)c1ccc(CC2C(=O)Nc3ccccc32)cc1", "note": "(stereo unspecified)", "Potency": "active: 31.6 µM"}, {"compound": "N#CC1=C(N)NC(SCC(=O)c2ccc(Cl)cc2)=C(C#N)C12CCCC2", "Potency": "inconclusive: 25.1 µM [inhibitor, single point]"}, {"compound": "c1ccc2c(c1)ccc1nnc(SCc3ccc4c(c3)OCO4)n12", "Potency": "inconclusive: 28.2 µM [inhibitor, partial curve, poor fit]"}, {"compound": "CCOC(=O)c1c(NC(=O)CN(CC)CC)sc2c1CCN(C(=O)OCC)C2", "Potency": "inconclusive: 31.6 µM [inhibitor, single point]"}, {"compound": "COc1c(/C=N/Nc2ccc([N+](=O)[O-])cc2[N+](=O)[O-])c(C)nn1-c1ccccc1", "Potency": "inconclusive: 1 µM [inhibitor, full curve]"}, {"compound": "CCOC(=O)c1sc2ncn(CC(=O)Nc3ccc(C)cc3Br)c(=O)c2c1C", "Potency": "inactive"}, {"compound": "O=C(Nc1ccc(F)c([N+](=O)[O-])c1)c1ccc2c(c1)C(=O)OC2=O", "Potency": "inconclusive: 25.1 µM [inhibitor, single point]"}, {"compound": "CCCSC1=N/C(=C\\c2ccsc2)C(=O)S1", "Potency": "inactive"}, {"compound": "CN(C)CCCN1C(=O)c2cccc3c(Br)ccc(c23)C1=O", "Potency": "inconclusive: 28.2 µM [inhibitor, partial curve]"}, {"compound": "Cc1ccc(-c2cc(C(=O)N3CCN(C(=O)c4ccco4)CC3)no2)cc1", "Potency": "inconclusive: 15.8 µM [inhibitor, partial curve]"}, {"compound": "CCOC(=O)c1cc(CC)sc1NC(=O)C1CC1", "Potency": "inconclusive: 39.8 µM [inhibitor, single point]"}, {"compound": "COc1ccc(-c2noc(-c3cccc(OC)c3OC)n2)cc1OC", "Potency": "inconclusive: 3.16 µM [inhibitor, full curve]"}, {"compound": "CC(C)c1ccc(NC(=O)c2cc(S(=O)(=O)NCc3ccccc3Cl)ccc2F)cc1", "Potency": "inactive"}, {"compound": "Cc1cc2ccccc2n1CCNC(=O)c1cccc(Cl)c1", "Potency": "inconclusive: 25.1 µM [inhibitor, partial curve]"}, {"compound": "O=C(c1ccco1)N1N=C(C2CCCCC2)CC1(O)C(F)(F)F", "note": "(stereo unspecified)", "Potency": "inactive"}, {"compound": "S=c1[nH]nc(-c2cc3c(s2)-c2ccccc2CC3)o1", "Potency": "active: 12.6 µM"}, {"compound": "COc1cc(C)c(NC(=O)C(=S)N2CCCC2)cc1C", "Potency": "inconclusive: 39.8 µM [inhibitor, single point]"}, {"compound": "COc1ccc(CNC(=O)CC(c2ccc(OC)c(OC)c2)N2Cc3ccccc3C2=O)cc1", "note": "(stereo unspecified)", "Potency": "inactive"}, {"compound": "CCN(CC)c1ccc(/C=C2\\NC(=O)NC2=O)cc1", "Potency": "inconclusive: 14.1 µM [inhibitor, partial curve]"}, {"compound": "CCOc1ccc(/C=C2/Sc3ccc(C(=O)N4CCN(C(=O)c5ccco5)CC4)cc3N(C)C2=O)cc1OC", "Potency": "inconclusive: 20 µM [inhibitor, partial curve, poor fit]"}, {"compound": "COc1ccc(C(c2c(O)ccc3ccccc23)N2CCOCC2)c(OC)c1", "note": "(stereo unspecified)", "Potency": "active: 11.2 µM"}, {"compound": "COc1cccc(CNC(=O)C2CCC(CNS(=O)(=O)c3ccc(Br)s3)CC2)c1", "note": "(stereo unspecified)", "Potency": "inactive"}, {"compound": "CCOc1ccc(Sc2cc(C(=O)NCCc3ccccc3)c3ccccc3n2)cc1", "Potency": "inactive"}, {"compound": "O=C(Nc1ccc(N2CCCCC2)cc1)c1cncc(Br)c1", "Potency": "inconclusive: 15.8 µM [inhibitor, partial curve]"}, {"compound": "Cc1nc(N2CCN(c3ccccc3)CC2)nc2c1C(=O)CCC2", "Potency": "inconclusive: 3.55 µM [inhibitor, single point]"}, {"compound": "O=C1c2cnc3nc(SCc4ccccc4)nn3c2CC2c3ccccc3CCN12", "note": "(stereo unspecified)", "Potency": "inconclusive: 17.8 µM [inhibitor, partial curve]"}, {"compound": "COc1ccc(-c2noc(CSc3nnc(-c4ccncc4)n3-c3ccc(C)cc3)n2)cc1", "Potency": "inconclusive: 28.2 µM [inhibitor, single point]"}, {"compound": "CCn1c(SCC(=O)Nc2sc3c(c2C(N)=O)CCC(C)C3)nnc1-c1ccco1", "note": "(stereo unspecified)", "Potency": "inconclusive: 14.1 µM [inhibitor, partial curve]"}, {"compound": "C(=N\\N=C\\c1cccs1)/c1cccs1", "Potency": "inactive"}, {"compound": "COc1ccccc1-n1c(/C=C/c2c(C)n(C)c3ccccc23)nc2ccccc2c1=O", "Potency": "inconclusive: 25.1 µM [inhibitor, partial curve]"}]}]}
